Measured values taken from PubChem BioAssay AID360 (National Center for Advancing Translational Sciences (NCATS), 2006).
Hit rate of the full screen: of about 48,000 compounds, about 550 (1.1%) were called active. Inconclusive results (about 4%) are left out. No stated cut-off is given here; in the data, active means potency below about 15 µM; inconclusive means mostly about 16 µM to 33 µM; inactive means weaker than that. This is one part of the list.

These compounds were tested against Lysosomal acid glucosylceramidase (Homo sapiens) (UniProt P04062) (assay: Glucocerebrosidase). Details: purified enzyme, resorufin glucoside fluorescence (screen aimed at inhibitors), 20 min.
Chain of UniProt P04062 (P04062 whole entry, looked up): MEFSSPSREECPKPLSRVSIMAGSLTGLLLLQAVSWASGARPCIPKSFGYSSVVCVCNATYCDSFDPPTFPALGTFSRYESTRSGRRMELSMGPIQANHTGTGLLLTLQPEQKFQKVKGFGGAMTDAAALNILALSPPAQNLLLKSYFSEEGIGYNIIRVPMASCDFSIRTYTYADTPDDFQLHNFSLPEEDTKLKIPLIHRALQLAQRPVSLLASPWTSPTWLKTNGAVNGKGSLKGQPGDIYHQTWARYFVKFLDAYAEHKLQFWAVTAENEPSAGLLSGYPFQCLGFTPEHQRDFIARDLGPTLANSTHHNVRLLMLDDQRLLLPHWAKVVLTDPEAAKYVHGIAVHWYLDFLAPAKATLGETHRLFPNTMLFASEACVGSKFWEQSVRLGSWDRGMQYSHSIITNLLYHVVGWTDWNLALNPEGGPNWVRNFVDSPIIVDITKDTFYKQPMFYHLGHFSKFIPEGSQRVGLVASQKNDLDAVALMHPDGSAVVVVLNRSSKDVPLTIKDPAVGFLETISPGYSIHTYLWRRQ
Procedure, shortened: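 Compounds titrated against 0.2 nM normal enzyme, 30 uM resorufin beta-D-glucopyranoside substrate, citrate/phosphate buffer with taurocholate and tween-20, pH 5.9. Reaction ran 20 min at room temperature; fluorescence (Ex 548/Em 600) gave AC50.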
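Further: the screen sought inhibitors.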
Potency means the concentration at half of the fitted maximal effect.

Compound	Potency
CS(=O)(=O)NCCOc1ccc(S(=O)(=O)N2CCCc3ccccc32)cc1	inactive: > 76.9 µM
Cc1csc2nc(CSc3nc4ccccc4o3)c(Br)n12	inactive: > 76.9 µM
COc1ccc(Cl)cc1NC(=O)CSc1nncn1-c1cccnc1	inactive: > 76.9 µM
CSc1ncc(Cl)c(C(=O)Nc2ccc(S(=O)(=O)N3CCOCC3)cc2)n1	inactive: > 76.9 µM
Cc1ccc(C)c(N2CCN(C(=O)c3ccc(CS(=O)(=O)c4ccccc4C)o3)CC2)c1	inactive
CCOC(=O)c1sc(C)c(C(N)=O)c1NC1=NCCCCC1	inactive
C=C(C)COc1ccc(-c2n[nH]c(C)c2Oc2ccccc2OC)c(O)c1	inactive: > 76.9 µM
CC1(C)OC(=O)C(=CNCC(O)c2ccccc2)C(=O)O1 (configuration not stated)	inactive: > 76.9 µM
CC(C)N=C(NC#N)SCC(=O)NC(C)(C)C	inactive: > 76.9 µM
O=c1oc(-c2ccco2)nc2c1cnn2-c1ccccc1	inactive: > 76.9 µM
COc1cccc(NC(=O)C2CC(=O)N(C)C(=Nc3cccc(F)c3)S2)c1 (configuration not stated)	inactive: > 76.9 µM
COC(=O)[C@H]1C2CCC(C(=O)OC)(CC2)[C@H]1C(=O)OC	inactive: > 76.9 µM
CCN(CC)Cc1nc2c(c(=O)[nH]1)C1(CCCCC1)Cc1ccccc1-2	inactive: > 76.9 µM
O=C(N/C(=N\O)c1ccccc1)Nc1ccc(Cl)cc1	inactive: > 76.9 µM
COc1ccc(C(=O)NCc2nnc(SCC(=O)N3CCCCC3)o2)cc1OC	inactive: > 76.9 µM
CCS(=O)(=O)N1CCC(C(=O)NCc2ccccc2OC)CC1	inactive: > 76.9 µM
CNC(=O)OC(C)CNS(=O)(=O)c1ccc(C)cc1 (configuration not stated)	inactive: > 76.9 µM
CCn1c(-c2cc(OC)c(OC)c(OC)c2)n[nH]c1=S	inactive: > 76.9 µM
O=C(Nc1ccc2oc(-c3ccncc3)nc2c1)c1c(F)c(F)c(F)c(F)c1F	inactive: > 76.9 µM
Cn1cccc1C(C(=O)NC1CCCCC1)N(C(=O)Cc1cccs1)C1CC1 (configuration not stated)	inactive: > 76.9 µM
COCCn1c(SCC(=O)N(C(C)C)C(C)C)nnc1-c1cc2ccccc2cc1O	inactive: > 76.9 µM
O=C(Nc1ccccc1-c1ccccc1)c1cnccn1	inactive: > 76.9 µM
CCc1ccccc1NC(=O)c1ccoc1C	inactive: > 76.9 µM

Compound	Potency
Cc1csc2ncc(C(=O)Nc3ccon3)c(=O)n12	inactive: > 76.9 µM
COC(=O)c1nnn(-c2nonc2N)c1CSc1ccccn1	inactive: > 76.9 µM
Cc1cc(N2CCCCC2)nc(SCc2ccc(C#N)cc2)n1	inactive: > 76.9 µM
CC(C)COC(=O)Cn1cnc2ccc(Br)cc2c1=O	inactive: > 76.9 µM
Cc1ccc(C)c2[nH]c(=O)c(CN(CCN3CCCC3)C(=O)Nc3ccc(F)cc3)cc12	inactive: > 76.9 µM
CCOc1ccc(Nc2nc(Cc3nnc(SCC(=O)NCC4CCCO4)n3C)cs2)cc1 (configuration not stated)	inactive: > 76.9 µM
C[C@H](C(=O)O)c1n[nH]c(=O)c2ccccc12	inactive: > 76.9 µM
CCSc1nnc(NC(=O)CSc2nnc(Cc3cccn3C)n2-c2ccc(F)cc2)s1	inactive: > 76.9 µM
O=C(O)c1ccc(S(=O)(=O)N2CCC(c3nc(-c4ccccc4Cl)no3)CC2)cc1	inactive: > 76.9 µM
CCC(=O)N1CCc2cc(S(=O)(=O)NCCC(=O)NC3CCCc4ccccc43)ccc21 (configuration not stated)	inactive: > 76.9 µM
O=C(CCS(=O)(=O)c1cccc2nonc12)N1CCN(c2ccc(F)cc2)CC1	inactive: > 76.9 µM
CCOC(=O)/C=C(\C)Sc1cc(=O)oc2ccccc12	inactive: > 76.9 µM
CCCCCNC(=O)c1ccc2c(=O)[nH]c3c(C(=O)NCC4CCCO4)sc(=S)n3c2c1 (configuration not stated)	inactive: > 76.9 µM
Cc1cccn2c(=O)c3cc(C#N)c(=NC(=O)c4ccncc4)n(CCCOC(C)C)c3nc12	inactive: > 76.9 µM
CCOC(=O)N1CCN(C(=O)C2CC(=O)N(c3ccc(OC)cc3)C2c2ccc(OC)cc2)CC1 (configuration not stated)	inactive: > 76.9 µM
COC(=O)c1sccc1NC(=O)c1ccncc1	inactive: > 76.9 µM
O=C(O)C1CCCCC1C(=O)Nc1nc(-c2cccs2)cs1 (configuration not stated)	inactive: > 76.9 µM
O=C(NS(=O)(=O)c1ccc(NC(=O)C2CCCO2)cc1)c1ccccc1 (configuration not stated)	inactive: > 76.9 µM
Nn1cnnc1SCC(=O)Nc1ccc(C2CCCCC2)cc1	inactive: > 76.9 µM
C=CCNC(=O)COc1ccc(S(=O)(=O)NC2CCCCC2)cc1	inactive: > 76.9 µM
COc1cccc(CNC(=O)C2CCN(S(=O)(=O)c3ccccc3)CC2)c1	inactive: > 76.9 µM
Cc1c(C)n(CC(O)CN2CCOCC2)c2ccccc12 (configuration not stated)	inactive: > 76.9 µM
Cc1ccc(NC(=O)c2cc(S(=O)(=O)N3CCC4(CC3)OCCO4)ccc2F)cc1	inactive: > 76.9 µM

Compound	Potency
CCOC(=O)c1ccc(NC(=O)CN(C)S(=O)(=O)c2ccc(OC)cc2)cc1	inactive: > 76.9 µM
CC(=O)Nc1c(O)[nH]c2ccccc12	inactive: > 76.9 µM
CCOc1ccc(OCC)c(NC(=O)C2CCCN(S(=O)(=O)c3cccs3)C2)c1 (configuration not stated)	inactive: > 76.9 µM
CCOc1ccc(S(=O)(=O)Nc2cccnc2)cc1	inactive: > 76.9 µM
CC(C)NC(=O)Cn1cc(C#N)c2cc(Br)ccc21	inactive: > 76.9 µM
COC(=O)c1c(C)oc2ccc(OC(=O)N3CCOCC3)cc12	inactive: > 76.9 µM
CCN(CC)c1nc(Nc2ccc(Cl)cc2)nc(OCC#N)n1	inactive: > 76.9 µM
Cc1ccc(-c2nc3ccccc3c(=O)n2CCCN2CCOCC2)cc1	inactive: > 76.9 µM
O=C(Nc1cccc(C(F)(F)F)c1)c1ccco1	inactive: > 76.9 µM
COc1ccccc1NC(=O)CSc1nnc(Cn2nnc(-c3ccccc3)n2)n1-c1ccccc1	inactive: > 76.9 µM
COc1ccc(C(=O)Oc2c(C)occc2=O)cc1OC	inactive: > 76.9 µM
CCOc1ccccc1C(=O)NCc1ccc2c(c1)OCO2	inactive: > 76.9 µM
CN(C)c1cccc(-c2nnc(SCCCC#N)o2)c1	inactive: > 76.9 µM
COc1ccccc1NC(=O)CSc1nnc(COc2ccc(Cl)cc2)n1Cc1ccco1	inactive
CCCCOc1ccc(-c2c(C#N)c(N)nc(SCC(N)=O)c2C#N)cc1	active: 8.78 µM
CSc1ccc(-c2c(C#N)c(N)nc3c2CCCC3)cc1	inactive: > 76.9 µM
CC(=O)Nc1coc2ccc(Br)cc12	inactive: > 76.9 µM
Cc1cc(Cl)cc(Br)c1OCCCCn1cncn1	inactive: > 76.9 µM
CC1CC(C)CN(CC(C)(C)NS(=O)(=O)c2ccccc2)C1 (configuration not stated)	inactive: > 76.9 µM
COc1cccc(C(=O)CSc2nc3ccccc3n2CC(=O)N2CCOCC2)c1	inactive: > 76.9 µM
CCOC(=O)c1c(NC(=O)CN2CCN(c3ccccn3)CC2)sc2c1CCCC2	inactive: > 76.9 µM
CCOc1ccc(-c2cc(CCCC(=O)NCCCOC)no2)cc1	inactive: > 76.9 µM
NC(=O)C1(N2CCCCC2)CCN(C(=O)CSc2nc3ccccc3s2)CC1	inactive: > 76.9 µM

Compound	Potency
CCN1CCCC1CNC(=O)c1cn(CC)c2ccc(S(=O)(=O)N3CCCCCC3)cc2c1=O (configuration not stated)	inactive: > 76.9 µM
CC(C)(C)OC(=O)N1CCNc2ccccc2C1	inactive: > 76.9 µM
CSc1nnc(-c2ccc(F)cc2)o1	inactive: > 76.9 µM
CCOC(=O)COc1ccc2c(c1)C(=O)CC(C)(C)O2	inactive: > 76.9 µM
COc1ccccc1OCC(=O)NCc1ccco1	inactive: > 76.9 µM
COc1ccc(OC)c(NC(=O)CSc2nnnn2-c2ccc3c(c2)OCO3)c1	inactive: > 76.9 µM
CS(=O)(=O)N(CC(N)=O)c1ccc2c(c1)OCO2	inactive: > 76.9 µM
COc1ccc(-n2ncc3c(=O)n(CC(=O)OCc4ccccc4)cnc32)cc1	inactive: > 76.9 µM
CCC1(C)CC(c2csc(N)n2)CCO1 (configuration not stated)	inactive: > 76.9 µM
Cc1cccc(C(=O)Nc2ccc(CC(=O)O)cc2)c1	inactive: > 76.9 µM
CC(=O)Nc1nc(COc2ccccc2)cs1	inactive: > 76.9 µM
Cn1c(SCC(=O)C(C)(C)C)nnc1-c1cccnc1	inactive: > 76.9 µM
O=C(CN1CCOCC1)NCCNC(=O)CN1CCOCC1	inactive: > 76.9 µM
COc1ccc(CCNC(=O)c2ccc(NS(=O)(=O)c3c(C)noc3C)cc2)cc1OC	inactive
COc1nc(-c2ccccc2)ccc1-c1noc(-c2ccccc2)n1	inactive: > 76.9 µM
COCCn1cc(C(=O)NCCCN2CCC(C)CC2)c2c3ccccc3n(C)c2c1=O	inactive: > 76.9 µM
Cc1cccc(C)c1OCc1nnc2c3cnn(C)c3ncn12	inactive: > 76.9 µM
COc1ccc(N(Cc2cc3cc(OC)ccc3[nH]c2=O)S(C)(=O)=O)cc1	inactive: > 76.9 µM
CCN(CC)S(=O)(=O)c1ccc(-c2nnc(SCC(=O)N3c4ccccc4CC3C)o2)cc1 (configuration not stated)	inactive: > 76.9 µM
O=C(CCCn1c(=O)c2ccccc2n(Cc2ccccc2)c1=O)NCc1ccco1	inactive: > 76.9 µM
COc1nonc1NCn1nc(C)cc1C	inactive: > 76.9 µM
CSc1ccc(C2C(C#N)=C(N)Oc3cc4c(cc32)OCO4)cc1 (configuration not stated)	inactive: > 76.9 µM
CCN(CC)C(NC(=O)c1ccccc1)C(=O)c1ccccc1 (configuration not stated)	inactive: > 76.9 µM
